Whole data set: some 33,000 sequences, median “E-score (-0.5 to 0.5)” near -0.016, cut for the highest 2% near 0.31. The list shows a part of the results.
These sequences were tested against Cst6 (UniProt P40535) (assay: PBM E-score (8-mer binding enrichment) (E-score (-0.5 to 0.5)); higher = stronger / more preferred TF binding; most listed sequences are background and not binding sites). Conditions: protein concentration: 200 nM; construct: GST-DNA-binding domain.
Procedure: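 Universal 'all 10-mer' protein binding microarrays (Agilent AMADID 015681) probed with GST-tagged S. cerevisiae TFs (full-length or DBD) made by in vitro transcription/translation (PURExpress), about 100-200 nM. Bound TF was detected with fluorescent anti-GST. Each ungapped 8-mer (which stands for itself and its reverse complement) is scored by the PBM enrichment score (E-score), a modified Wilcoxon-Mann-Whitney statistic from -0.5 to +0.5, computed with the Universal PBM Analysis Suite. Scale: above 0.35 generally sequence-specific binding.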

Row | Sequence | PBM E-score
1 | CTTCTAAC | -0.0385
2 | GACATGAA | 0.116
3 | CGCTTTCA | -0.0319
4 | CGCGCACG | 0.155
5 | CTACAAGA | -0.0692
6 | CGTCTGTC | 0.0367
7 | AATACTCG | 0.0658
8 | CGACGCAC | 0.149
9 | GATGGACC | 0.00105
10 | AGCCTATG | -0.0766
11 | GTTCTCAA | 0.147
12 | ACTACAAG | 0.0806
13 | ACTTCGCG | 0.0109
14 | CGTAGCAG | -0.0605
15 | GGACTTCA | -0.272
16 | ACTTGGCA | -0.15
17 | ATTTATGG | 0.148
18 | GGAACAGA | -0.0113
19 | CTGCCTAA | -0.00889
20 | CTCAGGTC | -0.148
21 | GCCACCAC | -0.0797
22 | CTCAACCC | -0.181
23 | CACTTGCC | -0.126
24 | CATGACCC | -0.0425
25 | CGTTTTCC | 0.0612

Row | Sequence | PBM E-score
26 | AAGCGTGC | 0.0722
27 | TCTTTGCA | 0.0306
28 | CATGTAGC | -0.12
29 | CCGCAGAA | 0.0771
30 | ATGACCCG | -0.143
31 | GCATACGA | 0.025
32 | ATCTTGAG | -0.0942
33 | GGGACGAA | -0.214
34 | CAGGGCGA | -0.00562
35 | GGAGATAC | -0.187
36 | CGTGACAA | 0.108
37 | CTTCCCGA | -0.0284
38 | AACGCATT | 0.1
39 | ACTGACCG | -0.0973
40 | CATCTTGA | -0.0929
41 | GGATGGTA | -0.0175
42 | GGACATTA | 0.0079
43 | ACGTAACC | 0.414
44 | CAATGATG | 0.391
45 | CCCGGTGA | 0.00785
46 | AGTCATCA | 0.0814
47 | ATCGACTC | -0.0297
48 | CGTCGCAG | -0.0455
49 | AGCCCAAC | -0.0976
50 | CGTTACGA | 0.182

Row | Sequence | PBM E-score
51 | GGTTCTGA | 0.0473
52 | GCATGCGA | 0.174
53 | GCCGTGAC | 0.341
54 | TGATAAAA | 0.302
55 | GATTTCAA | -0.0222
56 | ATAGGACG | -0.0146
57 | GGCTACCA | -0.158
58 | AGCCACCT | -0.179
59 | ATGATTAG | 0.158
60 | AATCAAGA | 0.112
61 | TAAAAGTA | 0.15
62 | ATGGCCCA | -0.0308
63 | CCCCTCCC | -0.227
64 | GTCAACAA | 0.165
65 | AGCCAGCC | -0.228
66 | ACTGTCTG | -0.132
67 | AAATAGTA | 0.109
68 | CCAAAACC | 0.0289
69 | CAGATCCA | -0.033
70 | CAGGTGAA | 0.0651
71 | CCAGCGAA | -0.191
72 | CCGTACTC | -0.113
73 | GGTCACCA | -0.148
74 | CTATCGAG | -0.0808
75 | AAGCTAAT | 0.199

Row | Sequence | PBM E-score
76 | CGTGGGGC | -0.187
77 | AGTTATCG | 0.177
78 | CTGTGTAC | -0.0331
79 | ACCAACAT | 0.149
80 | GCCGCCTA | -0.0725
81 | GAGGATTA | -0.125
82 | GCCGACAC | -0.214
83 | GAACTTGC | -0.125
84 | CTTCGATA | 0.178
85 | ACCCGGAG | -0.0777
86 | GCAGCACA | -0.0182
87 | GGCAGTAA | -0.092
88 | CATAAGAC | -0.0141
89 | ATGGGTAG | -0.196
90 | TGACCGAA | 0.192
91 | ACTGTAAA | 0.189
92 | AAACCAAA | 0.0972
93 | AATGCTGT | 0.0487
94 | AGGCTAAT | -0.0136
95 | CACGCTTA | 0.0938
96 | CATGTACC | -0.162
97 | GCCTGCCA | -0.126
98 | AGTGTGCC | -0.088
99 | CGGGGGTA | -0.199
100 | CCCGAAAA | 0.0582

Row | Sequence | PBM E-score
101 | CTTCTGAA | 0.0067
102 | ACATGGCG | -0.00129
103 | AAGTTAAA | 0.155
104 | ATAGGTAG | -0.0626
105 | CCGCGACG | -0.0707
106 | GCTTGCAA | 0.134
107 | TAATCTCA | 0.143
108 | ACGGGCTA | -0.174
109 | ACGATAAG | -0.0893
110 | AATTCTAC | 0.119
111 | AAAAAGAG | -0.0291
112 | CGGGACGA | -0.06
113 | ACTTAAGC | -0.0959
114 | CCAGGGCC | -0.39
115 | GGAATGGA | -0.17
116 | AGACCGAG | -0.274
117 | GCGAATAA | 0.0488
118 | AAGTCCAG | -0.207
119 | TCATTTCA | 0.206
120 | CAAATGTC | -0.0707
121 | CTGAGAAC | 0.0777
122 | ATTGGCGC | 0.0493
123 | CTGGGAAG | -0.148
124 | AAAGGGCC | -0.243
125 | CACTCGAC | -0.0355

Row | Sequence | PBM E-score
126 | GGGGTATA | -0.173
127 | CGGCATTC | 0.191
128 | GGACAAAA | 0.106
129 | ATGCACCC | -0.0971
130 | AGCCCACA | -0.297
131 | ACATGGAC | -0.218
132 | ACAGATAT | -0.00952
133 | AAACTAAG | 0.216
134 | ACGTTTCG | 0.127
135 | CATCAAAA | 0.236
136 | GAATAGGA | -0.059
137 | ATCATCAT | 0.355
138 | GTTCGCCA | -0.0637
139 | GCCCGCAA | -0.165
140 | AAAGGACT | -0.0673
141 | ACACGCCA | 0.0199
142 | ACTCCCGC | -0.0297
143 | ATGTAAAC | 0.269
144 | CGGAGCAA | -0.0949
145 | CTCTTACA | -0.0491
146 | CGGATCTA | -0.0503
147 | TAGAGCGA | -0.0948
148 | AGAGTTTG | 0.0165
149 | TACGCCTA | 0.0565
150 | GGGTGTCA | 0.0351

Row | Sequence | PBM E-score
151 | CCCCGACC | -0.251
152 | CGGCAACA | 0.235
153 | AATAATGC | 0.188
154 | CGTCACCA | 0.484
155 | AAACCTGC | -0.0935
156 | TACGAAAA | 0.233
157 | ACTAAAAC | 0.168
158 | AGCTGTCC | -0.16
159 | AACCTCAT | 0.201
160 | GCAACAGA | 0.0229
161 | ATCCCGCC | -0.197
162 | ACCACAGG | -0.258
163 | GGCTATAA | -0.0437
164 | AGATAGAT | -0.146
165 | ATCTCACG | 0.0583
166 | ATCCTTAG | -0.114
167 | ACCCGGAT | -0.33
168 | ACACGGCG | 0.394
169 | CGGACCAG | -0.126
170 | CAAAGCGC | -0.0444
171 | ATGAATGG | 0.155
172 | CGCAATTC | 0.0895
173 | ACGCGTAA | 0.129
174 | AGGCTCAA | 0.068
175 | CGGCCACA | -0.0975

Row | Sequence | PBM E-score
176 | GCATGCTA | -0.172
177 | ACGACCCA | -0.0849
178 | ATGTATAC | 0.202
179 | CATTGATC | 0.131
180 | GAACTTTA | -0.0635
181 | CGGGCCTA | -0.335
182 | GACGAGCC | -0.0886
183 | CAAAAGGC | 0.0614
184 | TTAAACAA | 0.0801
185 | CATCCGGG | -0.148
186 | CATTTTCC | 0.109
187 | GGCACGCC | -0.184
188 | GTATACGA | -0.0654
189 | AATGAACA | 0.0757
190 | CTCATGGC | -0.0491
191 | TAGCTATA | 0.0573
192 | GCCCTAAC | -0.0495
193 | AAGGACTG | -0.289
194 | GTTCCCGA | -0.229
195 | CTGATGCC | 0.113
196 | CTTTCTCC | -0.227
197 | CTAATCAC | 0.185
198 | ACTACATA | 0.148
199 | AACCGCAA | 0.107
200 | GTCTCTAA | -0.117

Row | Sequence | PBM E-score
201 | CCAAAGCC | -0.0189
202 | ACACAGTC | -0.198
203 | CCGTCTAG | -0.0667
204 | ATTGGACC | -0.258
205 | CAGCACCC | -0.185
206 | GCTGGCAC | -0.172
207 | ATTTGTCC | 0.143
208 | ATCAAGAG | 0.036
209 | CTCACCAA | 0.102
210 | ACGTGCGA | 0.0486
211 | ATGGAATC | 0.226
212 | GAGCCGCC | 0.0784
213 | CTGTCCCA | -0.219
214 | CTCGTCAA | 0.0507
215 | AGTTATAC | 0.118
216 | ACCGAGAC | -0.167
217 | ACTAAGAC | 0.0781
218 | GTTCGCGA | 0.0158
219 | GAGAGCAA | 0.0262

Source: the supplement of paper PMC3334620
